Among all 310,000 compounds or so, about 18,000 (5.8%) were called active. Inconclusive means that the source gave no clear call. Such entries were picked first, then a sample of the others. The call rests on the fitted dose curve; in most records, active means well fitted inhibition curve with a large enough effect; inconclusive means small, poorly fitted or top-dose-only effect, or another doubt; inactive means no such curve, though single readings can be large or run the other way. Potencies of inconclusive entries are left out as doubtful fits.
assay: Primary qHTS for delayed death inhibitors of the malarial parasite plastid, 48 hour incubation; settings: P. falciparum luciferase growth in erythrocytes; series mostly up to 28.7 µM; activity change, negative = inhibition: at the top concentration
Method in brief: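 Luciferase-expressing parasites in RBCs, 2% Hct / 0.1% parasitemia final; RPMI 1640 + 0.5% Albumax; 37 C, 5% CO2, one generation; luminescence read-out, lower signal = inhibition.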
On the % scale 0 is the no-effect control and ±100 the full control effect; potency means the concentration at half of the fitted maximal effect; tags describe the fitted curve by direction and shape.

Row | SMILES | Potency | activity change, negative = inhibition
1 | COc1cc(OC)cc(N(C(=O)c2snc(C(N)=O)c2N)C(C(=O)NCC2CCCO2)c2ccc(C)o2)c1 (stereo unspecified) | active: 4.65 µM | 
2 | Cc1nnc(NC(=O)C(C)Sc2nnc(CCNC(=O)c3ccccc3F)n2C)s1 (stereo unspecified) |  | inactive: -15.4%
3 | C#CC[N+]1(CC#Cc2cccc(C)c2)CCCCC1 | active: 1.47 µM | 
4 | COc1ccc(CN2CCNC(=O)C2CC(=O)NCC2CCOCC2)cc1C (stereo unspecified) |  | inactive: 0.101%
5 | COc1cccc(/C=N/Nc2ccc([N+](=O)[O-])cn2)c1O | inconclusive [inhibitor, full curve] | 
6 | COc1ccccc1NC(=O)COc1ccc(-c2nn(C)c(=O)c3ccccc23)cc1 | inconclusive [inhibitor, single point] | 
7 | O=C(NNS(=O)(=O)c1ccc(Cl)cc1)c1sccc1-n1cccc1 |  | inactive: 1.44%
8 | CCCn1c(=O)c2c(nc3n2CCCN3Cc2ccccc2)n(C)c1=O | inconclusive [inhibitor, partial curve] | 
9 | O=C1CCCC(=O)C1C(=O)C1CCN(S(=O)(=O)c2ccccc2)CC1 |  | inactive: -5.64%
10 | Cn1cccc1Cc1nnc(SCC(=O)NCc2ccc(F)cc2)n1-c1ccc(F)cc1 | inconclusive [inhibitor, single point] | 
11 | CC1CCCCC1NC(=O)CCS(=O)(=O)c1ccc2c(c1)NC(=O)CS2 (stereo unspecified) |  | inactive: -12.4%
12 | CCC(C)(C)NC(=O)C(c1cccc(OC)c1OC)N(CCC(C)C)C(=O)CCC(=O)Nc1cc(C)on1 (stereo unspecified) | inconclusive [inhibitor, single point] | 
13 | COc1cccc(CN2C(=O)CN(C3CCCCC3)C(=O)C2c2ccc(F)cc2)c1 (stereo unspecified) | inconclusive [inhibitor, full curve] | 
14 | O=C(COC(=O)c1ccc(F)cc1F)NCCC1=CCCCC1 |  | inactive: 12.1%
15 | C/C(=N\NC(=O)c1nc(C)cc(C)n1)c1ccccc1 |  | inactive: 174%
16 | CC(=O)N1CCN(S(=O)(=O)c2cccc(C(=O)Nc3ccccc3N3CCCC3)c2)CC1 | inconclusive [inhibitor, full curve, poor fit] | 
17 | O=C(Cc1ccccc1)Nc1cccc(NC(=O)c2cccs2)c1 | inconclusive [inhibitor, single point] | 
18 | CC(C)CNC(=O)NC1(C(F)(F)F)Oc2ccccc2O1 |  | inactive: 11.5%
19 | Oc1c(Cl)cc(Cl)cc1C(C#Cc1ccccc1)N1CCOCC1 (stereo unspecified) | inconclusive [inhibitor, single point] | 
20 | CCOc1ccc(CC(=O)N/N=C/c2cccnc2)cc1OCC |  | inactive: -0.201%
21 | Cc1cc(C)cc(N2C(=O)CSC2c2cccs2)c1 (stereo unspecified) | inconclusive [inhibitor, partial curve] | 

— PubChem BioAssay AID504832 (National Center for Advancing Translational Sciences (NCATS), 2011)
